We go through 31 sequences from article PMC12820563, “FoxP3 forms a head-to-head dimer in vivo and stabilizes its multimerization on adjacent microsatellites”.

Some of the results follow.

The target in this experiment is T1, MBP-FoxP1dN (Mus musculus, UniProt P58462 326-579).
T1 sequence: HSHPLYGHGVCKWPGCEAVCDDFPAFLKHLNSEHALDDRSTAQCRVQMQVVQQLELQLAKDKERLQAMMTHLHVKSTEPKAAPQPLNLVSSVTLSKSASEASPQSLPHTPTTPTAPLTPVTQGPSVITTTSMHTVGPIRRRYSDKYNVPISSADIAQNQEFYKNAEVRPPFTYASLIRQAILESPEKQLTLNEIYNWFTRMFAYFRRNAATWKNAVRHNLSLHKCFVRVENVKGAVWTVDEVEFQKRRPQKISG
Put plainly: PD-seq (MBP pull-down with sequencing); 20 mM Tris-HCl pH 7.5, 100 mM NaCl, 1.5 mM MgCl2, 0.4 uM protein, 0.1 uM dsDNA library, 30 min, room temperature, amylose pull-down; high values mean tight binding. Conditions: protein: recombinant; tags: His6-MBP; chain copies: 2; dsDNA, one strand shown. In outline: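 Amylose resin was used to capture complexes formed during 30 min at room temperature in Tris pH 7.5 buffer with NaCl and MgCl2 between 0.4 µM His6-MBP-tagged mouse FoxP3 or FoxP1 fragment lacking the N-terminus, expressed in E. coli, and 0.1 µM Klenow-filled double-stranded degenerate DNA library. After three washes, the DNA was released with proteinase K, barcoded by PCR and sequenced on Illumina. Binding is pooled-replicate reads-per-million enrichment, pull-down over input.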
As for “GATGATTGTTCTCCCAGCTGATGAATTAGTGTTTTCGAGTAAACAAATTTTCCTAATCTTTCTGTTCAAGCGCCATCTAC”, the binding signal is 2.42 RPM ratio (pull-down/input).

Regarding “GATGATTGTTCTCCCAGCTGATGAATTGGCGCCATCGAGTAAACAAATTTTCCTAATCTTTCTGTTCAAGCGCCATCTAC”, the binding signal is 0.945 RPM ratio (pull-down/input).

For the sequence “GATGATTGTTCTCCCAGCTGATGAATTCACGATATCGAGTAAACAAATTTTCCTAATCTTTCTGTTCAAGCGCCATCTAC”, the binding signal was 1.02 RPM ratio (pull-down/input).

Consider “GATGATTGTTCTCCCAGCTGATGAATTCGCTGTCTCGAGTAAACAAATTTTCCTAATCTTTCTGTTCAAGCGCCATCTAC”, for which the binding signal was 0.815 RPM ratio (pull-down/input).

Turning to “GATGATTGTTCTCCCAGCTGATGAATTACTCAGCTCGAGTAAACAAATTTTCCTAATCTTTCTGTTCAAGCGCCATCTAC”, the binding signal was 0.942 RPM ratio (pull-down/input).

As to “GATGATTGTTCTCCCAGCTGATGAATTAGTGCGGTCGAGTAAACAAATTTTCCTAATCTTTCTGTTCAAGCGCCATCTAC”, the binding signal was 0.85 RPM ratio (pull-down/input).

In the case of “GATGATTGTTCTCCCAGCTGATGAATTGTGAATCTCGAGTAAACAAATTTTCCTAATCTTTCTGTTCAAGCGCCATCTAC”, the binding signal was 0.99 RPM ratio (pull-down/input).

Turning to “GATGATTGTTCTCCCAGCTGATGAATTCATTCAATCGAGTAAACAAATTTTCCTAATCTTTCTGTTCAAGCGCCATCTAC”, the binding signal was 0.933 RPM ratio (pull-down/input).

With “GATGATTGTTCTCCCAGCTGATGAATTTTCGTTCTCGAGTAAACAAATTTTCCTAATCTTTCTGTTCAAGCGCCATCTAC”, the binding signal is 0.94 RPM ratio (pull-down/input).

Take “GATGATTGTTCTCCCAGCTGATGAATTTAAGAGGTCGAGTAAACAAATTTTCCTAATCTTTCTGTTCAAGCGCCATCTAC”: the binding signal is 0.798 RPM ratio (pull-down/input).

“GATGATTGTTCTCCCAGCTGATGAATTCATATAATCGAGTAAACAAATTTTCCTAATCTTTCTGTTCAAGCGCCATCTAC”: the binding signal is 1.16 RPM ratio (pull-down/input).

Take “GATGATTGTTCTCCCAGCTGATGAATTCGATGGCTCGAGTAAACAAATTTTCCTAATCTTTCTGTTCAAGCGCCATCTAC”: the binding signal was 0.84 RPM ratio (pull-down/input).

Turning to “GATGATTGTTCTCCCAGCTGATGAATTCTCAGTATCGAGTAAACAAATTTTCCTAATCTTTCTGTTCAAGCGCCATCTAC”, the binding signal is 0.923 RPM ratio (pull-down/input).

Take “GATGATTGTTCTCCCAGCTGATGAATTATTCTACTCGAGTAAACAAATTTTCCTAATCTTTCTGTTCAAGCGCCATCTAC”: the binding signal is 0.985 RPM ratio (pull-down/input).

In the case of “GATGATTGTTCTCCCAGCTGATGAATTCCACCGGTCGAGTAAACAAATTTTCCTAATCTTTCTGTTCAAGCGCCATCTAC”, the binding signal is 0.744 RPM ratio (pull-down/input).

For “GATGATTGTTCTCCCAGCTGATGAATTCATCTGATCGAGTAAACAAATTTTCCTAATCTTTCTGTTCAAGCGCCATCTAC”, the binding signal is 0.904 RPM ratio (pull-down/input).

Turning to “GATGATTGTTCTCCCAGCTGATGAATTCACTACATCGAGTAAACAAATTTTCCTAATCTTTCTGTTCAAGCGCCATCTAC”, the binding signal was 0.992 RPM ratio (pull-down/input).

On to “GATGATTGTTCTCCCAGCTGATGAATTAAGAGCCTCGAGTAAACAAATTTTCCTAATCTTTCTGTTCAAGCGCCATCTAC”, for which the binding signal was 0.924 RPM ratio (pull-down/input).

On to “GATGATTGTTCTCCCAGCTGATGAATTAGGAGTGTCGAGTAAACAAATTTTCCTAATCTTTCTGTTCAAGCGCCATCTAC”, for which the binding signal was 0.918 RPM ratio (pull-down/input).

Consider “GATGATTGTTCTCCCAGCTGATGAATTTCTATTATCGAGTAAACAAATTTTCCTAATCTTTCTGTTCAAGCGCCATCTAC”, for which the binding signal was 1.48 RPM ratio (pull-down/input).

For the sequence “GATGATTGTTCTCCCAGCTGATGAATTTACAGAGTCGAGTAAACAAATTTTCCTAATCTTTCTGTTCAAGCGCCATCTAC”, the binding signal was 1.12 RPM ratio (pull-down/input).

Regarding “GATGATTGTTCTCCCAGCTGATGAATTAATTAGTTCGAGTAAACAAATTTTCCTAATCTTTCTGTTCAAGCGCCATCTAC”, the binding signal was 0.983 RPM ratio (pull-down/input).

Regarding “GATGATTGTTCTCCCAGCTGATGAATTAGTAAACTCGAGTAAACAAATTTTCCTAATCTTTCTGTTCAAGCGCCATCTAC”, the binding signal was 1.63 RPM ratio (pull-down/input).

In the case of “GATGATTGTTCTCCCAGCTGATGAATTGTTCTGTTCGAGTAAACAAATTTTCCTAATCTTTCTGTTCAAGCGCCATCTAC”, the binding signal is 1.18 RPM ratio (pull-down/input).

“GATGATTGTTCTCCCAGCTGATGAATTCCAATCGTCGAGTAAACAAATTTTCCTAATCTTTCTGTTCAAGCGCCATCTAC”: the binding signal was 0.771 RPM ratio (pull-down/input).

Consider “GATGATTGTTCTCCCAGCTGATGAATTAGGAGATTCGAGTAAACAAATTTTCCTAATCTTTCTGTTCAAGCGCCATCTAC”, for which the binding signal is 0.894 RPM ratio (pull-down/input).

Turning to “GATGATTGTTCTCCCAGCTGATGAATTCAGTGTTTCGAGTAAACAAATTTTCCTAATCTTTCTGTTCAAGCGCCATCTAC”, the binding signal was 1.03 RPM ratio (pull-down/input).

On to “GATGATTGTTCTCCCAGCTGATGAATTGTCCCCTTCGAGTAAACAAATTTTCCTAATCTTTCTGTTCAAGCGCCATCTAC”, for which the binding signal was 1.01 RPM ratio (pull-down/input).

As for “GATGATTGTTCTCCCAGCTGATGAATTCCCCAACTCGAGTAAACAAATTTTCCTAATCTTTCTGTTCAAGCGCCATCTAC”, the binding signal is 0.882 RPM ratio (pull-down/input).

Turning to “GATGATTGTTCTCCCAGCTGATGAATTACGGCCATCGAGTAAACAAATTTTCCTAATCTTTCTGTTCAAGCGCCATCTAC”, the binding signal is 0.899 RPM ratio (pull-down/input).

On to “GATGATTGTTCTCCCAGCTGATGAATTCTTGTTATCGAGTAAACAAATTTTCCTAATCTTTCTGTTCAAGCGCCATCTAC”, for which the binding signal was 2.09 RPM ratio (pull-down/input).
